Reference: ChEMBL document CHEMBL4888484, “Replenishing the malaria drug discovery pipeline: Screening and hit evaluation of the MMV Hit Generation Library 1 (HGL1) against asexual blood stage Plasmodium falciparum ,using a nano luciferase reporter read-out” (2022)
The whole screen tested about 150,000 compounds, of which about 540 (0.36%) showed an effect of 50% or more. The list shows a part of the results.

Test system: Plasmodium falciparum
Experiment: Primary screen in NF54 nanoGlo assay, in single point, at 2uM, 72h; a lower Z score goes with more inhibition
Assay type: functional, Erythrocyte
Details: timepoint 72 hour

Compound	% Inhibition [%]	Z score
O=C1NCCN2CCN(C(=O)COCc3ccccc3)CC[C@@H]12	-5	0.71
C=CCNC(=O)CN(Cc1ccco1)c1ccc(OC)c(F)c1	6	-0.62
CCc1cccc(NC(=O)Cn2c(C(=O)NCc3ccc(F)cc3F)cccc2=O)c1	-16	1.57
COCCCC(=O)Nc1cc(S(=O)(=O)N2CCOCC2)ccc1N1CCOCC1	-9	1.79
NC(=O)[C@H]1CCCN(C(=O)C2=CCCC2)C1	6	-0.78
Brc1cccc(C2(c3nc(C4CCCC4)no3)CCOCC2)c1	-4	0.76
Cn1ccc(C(=O)N2CCOC(C)(C)C2)cc1=O	-3	0.63
C[C@@H](CC(=O)N1CCCN(C(N)=O)CC1)C1CCCCC1	-9	1.35
COc1cc2c(cc1Cl)CN(Cc1nc(C3CC3)no1)CC2	-9	0.95
Cc1nc(CN(C)C2CCC(NC(=O)OC(C)(C)C)CC2)oc1C (centres undefined)	-11	0.94
COc1ccc(OC)c([C@@H]2CCCN2C(=O)CN2CCN(CC(=O)Nc3c(C)cccc3C)CC2)c1	4	-0.58
O=C(NCc1ccccn1)N1CCCCCO1	-11	1.83
N#Cc1c(F)cccc1N1CCCC[C@@H]1Cn1cncn1	2	-0.36
CCc1ccccc1NC(=O)c1ncn2c1C(=O)N(C1CC1)[C@](C)(C(=O)NC1CCCC1)C2	-6	0.58
COc1cc2c(cc1CN1CC[C@H](OC)C1)OCCCO2	-3	0.36
O=C(c1ccncc1)N1CCC[C@H](n2cc(-c3nc(C4CC4)no3)nn2)C1	5	-0.59
O=C(Nc1ccc(Cl)cc1)c1cccc(-c2cnc3ccccc3c2)c1	2	-0.35
CCCCn1cnc2c1c(=O)n(Cc1nc3ccccc3s1)c(=O)n2CCC	-15	2.17
COc1ccc(CC(=O)N2C3COCC2C3)nc1	33	-3.69
COc1ccccc1CC1(O)CCN(C(=O)NCC[C@H]2CCC(=O)N2)CC1	6	-0.82
CC(C)CN(CC(C)C)c1nnc(NC(=O)NCc2ccccc2)s1	-3	0.57
CCn1c(C2CCN(C(=O)Cc3cccs3)CC2)nn(CCOC)c1=O	-3	0.33

Compound	% Inhibition [%]	Z score
CCC1(CC)CCCN(CCC(=O)O)CC1	-15	2.38
CCN(c1cccc(C)c1)[C@@H](C(=O)NC1CCCCC1)c1ccc(Cl)cc1	-11	1.72
Cc1cnc(C(=O)N2CCCCC[C@H]2c2nnc(-c3ccccc3)o2)cn1	-13	2.42
Cc1nc2ccc(NC(=O)Cc3n[nH]c(=O)c4ccccc34)cc2s1	-13	1.11
O=C(CC1CCCC1)NCc1ccccc1-c1ccsc1	6	-1.19
O=C(Cc1cccc(OC(F)(F)F)c1)NC[C@H](O)C1CC1	-11	1.42
Cc1ccc(C(=O)N(C)C)cc1OC(=O)c1ccc2c(c1)COC2	-13	1.45
Cc1ncsc1CCc1ncnn1C(C)(C)C	-3	0.48
O=S(=O)(c1ccccc1)N1CC[C@@]2(CO)CN(Cc3ccccc3)C[C@H]2C1	-6	0.73
CCN1CCC[C@H](NC(=O)c2cc(C(C)C)[nH]n2)C1	3	-0.35
CC1CCN(C(=O)N2C[C@H](C(N)=O)[C@@H](c3ccccc3)C2)CC1	-4	0.58
COc1ccc(-c2noc(NCC3CCN(Cc4ccccc4F)CC3)n2)cc1	-29	2.54
Cc1ccc(Oc2cnn(-c3ccc(F)cc3)c(=O)c2Nc2cccc(C(=O)NCc3cccnc3)c2)cc1	6	-1.15
Cc1ccc(NC(=O)N(C)CCO)c(F)c1	-7	0.66
CNC(=O)C1CCC(NCc2c(C)nn(C)c2N(C)C)CC1 (centres undefined)	-2	0.3
O=C(c1cn(Cc2ccccn2)nn1)N(C1CCCCC1)C1CC1	-8	1.51
N#Cc1cccc(C#N)c1NC[C@H]1CCCO1	31	-3.98
C[C@@H](NC(=O)c1cc[nH]n1)c1cc2ccccc2o1	7	-0.74
CN=C(NCc1cc(C)c(F)c(C)c1)NCc1cnn(C)c1	-16	1.84
O=C(CCCS(=O)(=O)N1CCCC1)N1CCCCCO1	7	-1.2
CS(=O)(=O)N1CCN(C(=O)N2C3CCC2CC(Oc2ccncc2)C3)C1=O (centres undefined)	-15	1.7
Cc1sc(C(=O)N2CCCC2)c2ncnc(NCc3cccs3)c12	-15	2.6

Compound	% Inhibition [%]	Z score
CCCN(C(=O)Nc1cc(Cl)ccc1OC)c1nc(-c2ccc(C3CCCCC3)cc2)cs1	-14	2.04
COc1ccccc1CNC(=O)C1CCCCC1C(=O)N1CCCC1 (centres undefined)	-10	1.25
Cc1[nH]ccc1C(=O)N1CCC[C@@]2(CCS(=O)(=O)C2)C1	-6	1.03
Cc1c(C(=O)N2C[C@H]3CC[C@@H](C2)N(CC2CC2)C3)cnn1C	-11	1.95
Cc1cc(CCNC(=O)[C@H]2CC[C@H](Nc3ncccn3)CC2)nn1C	-5	0.72
O=C(CC[C@H]1CCCOC1)Nc1cccc(Cl)c1O	2	-0.31
CC(=O)NCCc1noc([C@@H](c2ccccc2)C2CC2)n1	-2	0.31
Cc1nsc(OCc2ccccc2F)n1	-1	0.11
CCOC1(C)CN(C(=O)c2ncccc2OC(C)C)C1	-12	1.87
C[C@@H](CN1CCCCC1)c1nc(-c2cccc(F)c2)n[nH]1	-5	0.64
CCc1nc(-c2ccc(N3CCN(C(=O)c4ccc(C)c(C)c4)CC3)cc2)no1	3	-0.32
CN1CCN(S(=O)(=O)N2CCCCCC2)C[C@]12CCNC(=O)CC2	-6	0.76
Cc1csc(C(C)Cn2nnnc2N2C[C@@H](C)O[C@@H](C)C2)n1 (some centres undefined)	-11	1.37
Cc1nc2c(c(N3CCCC3)n1)CCN(C(=O)N(C(C)C)C(C)C)C2	-8	0.77
c1ccc(Cn2ccnc2CN2CCOCC2)cc1	-6	0.8
O=S(=O)(CC12CCC(CC1)CC2)N[C@H]1CC12CCOCC2	-6	1.01
COc1cc(=O)c(C(=O)N2CCN(S(N)(=O)=O)CC2)nn1-c1ccc(F)cc1	5	-0.83
COCCOCC(=O)N1CCC2(CC1)C[C@H](c1ccccc1)C(=O)N2C	-6	0.73
COCCC1(C(=O)NCc2noc(-c3ccsc3)n2)CCC1	-7	0.92
CC(NC(=O)C(C)n1sc2ccccc2c1=O)c1ccc2c(c1)OCCO2 (centres undefined)	-11	1.91
COc1cccc([C@@H](O)Cn2cnc3c(ncn3C)c2=O)c1	3	-0.44
Cc1ccccc1CC(=O)N1CCC[C@H](Cn2cc(C(=O)N3CCCC3)nn2)C1	-7	1.33

Compound	% Inhibition [%]	Z score
Cc1nc(CN(C)C(=O)C(=O)Nc2ccc(F)cc2Cl)no1	-29	3.4
CCCCc1ccc(NC(=O)N2CC[C@]3(C2)c2nc[nH]c2CCN3C)cc1	-17	2.86
CCCS(=O)(=O)N1CCC(F)(c2nc(-c3ccncc3)no2)CC1	-11	1.44
CCn1cnc(NC(=O)NCCc2nnn[nH]2)n1	0	-0.04
CC(C)N(Cc1nccn1C)C(=O)[C@H]1CCC(=O)N(CCc2ccccc2)C1	-4	0.37
CCc1cc(NC(=O)CCC(F)(F)F)nc(C)n1	-2	0.32
CN(C(=O)c1cccn(C)c1=O)C1CCCC1	-2	0.3
O=C(NC1CCCC1Oc1ccccc1)c1ccncc1 (centres undefined)	-13	1.9
CC[C@H]1Cc2ccccc2CN1C(=O)NCc1nc(C)cs1	-2	0.37
O=C(Cn1nc2c(N3CCCC3)nc3ccccc3n2c1=O)Nc1ccc(F)cc1	-9	1.16
COc1ccc(C2CC(c3ccccc3)n3ncnc3N2C(=O)CC(C)C)cc1 (centres undefined)	5	-0.78
Cc1ncc(-c2nc([C@H]3CCOC3)no2)c(C)n1	-16	1.71
CNC(=O)C(=O)Nc1ccccc1C(F)(F)F	34	-0.94
Cc1ccc(NC(=O)[C@@H](N)COC(C)C)cn1	-19	3.33
CC(=O)NC[C@H]1CCCN(c2nc3nonc3nc2N2CCCC2)C1	-18	2.04
O=C(O)CCc1ccc(-c2ccc(F)cc2)n1NC(=O)c1ccccc1Br	2	-0.29
Cc1c[nH]c(CN(C)C(=O)c2cnn(C)c2C)n1	-4	0.78
Cc1nnc(OCc2ccccc2C)s1	-1	0.2
O=C(CC1=CCCCC1)N1CC[C@@]2(CCCN(CC3CCC3)C2=O)C1	-12	1.77
COCc1nc(CN2CCCC2)n(-c2ccncc2)n1	-10	2.08
Cc1ncc(C(=O)OCC(=O)N(C2CCCC2)[C@H]2CCS(=O)(=O)C2)s1	-14	1.86
